# Some of the results follow.
# B1: Cel5A (Clostridium thermocellum), P16218 (protein)
# chain: AVGEKMLDDFEGVLNWGSYSGEGAKVSTKIVSGKTGNGMEVSYTGTTDGYWGTVYSLPDGDWSKWLKISFDIKSVDGSANEIRFMIAEKSINGVGDGEHWVYSITPDSSWKTIEIPFSSFRRRLDYQPPGQDMSGTLDLDNIDSIHFMYANNKSGKFVVDNIKLIGATSDPTPSIKHGDLNFDNAVNSTDLLMLKRYILKSLELGTSEQEEKFKKAADLNRDNKVDSTDLTILKRYLLKAISEIPI
# Assays:
# Experiment in all cases: glycan array binding signal (z-score within array); higher = stronger binding
# Conditions in all cases: glycan notation: IUPAC condensed, linker removed
# Glc(b1-3)Glc = biological target: Glc(b1-3)Glc
# How it was run: (§1)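 From the Consortium for Functional Glycomics database, 3228 arrays were curated, keeping only those whose protein sequence was available. Binding is given as a within-array Z-score averaged across arrays sharing a protein sequence and across linkers. Negative Z-scores can be read as non-binding.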
# Glc(b1-3)Glc(b1-3)Glc = biological target: Glc(b1-3)Glc(b1-3)Glc
# How it was run: as §1
# [1] = biological target: Glc(b1-3)Glc(b1-3)Glc(b1-3)Glc
# How it was run: as §1
# [2] = biological target: Glc(b1-3)Glc(b1-3)Glc(b1-3)Glc(b1-3)Glc
# How it was run: as §1
# [3] = biological target: Glc(b1-3)Glc(b1-3)Glc(b1-3)Glc(b1-3)Glc(b1-3)Glc
# How it was run: as §1
# [4] = biological target: Glc(b1-3)Glc(b1-3)Glc(b1-3)Glc(b1-3)Glc(b1-3)Glc(b1-3)Glc
# How it was run: as §1
# [5] = biological target: Glc(b1-3)Glc(b1-3)Glc(b1-3)Glc(b1-3)Glc(b1-3)Glc(b1-3)Glc(b1-3)Glc
# How it was run: as §1
# [6] = biological target: Glc(b1-3)Glc(b1-3)Glc(b1-3)Glc(b1-3)Glc(b1-3)Glc(b1-3)Glc(b1-3)Glc(b1-3)Glc
# How it was run: as §1
# [7] = biological target: Glc(b1-3)Glc(b1-3)Glc(b1-3)Glc(b1-3)Glc(b1-3)Glc(b1-3)Glc(b1-3)Glc(b1-3)Glc(b1-3)Glc
# How it was run: as §1
# [8] = biological target: Glc(b1-3)Glc(b1-3)Glc(b1-3)Glc(b1-3)Glc(b1-3)Glc(b1-3)Glc(b1-3)Glc(b1-3)Glc(b1-3)Glc(b1-3)Glc
# How it was run: as §1
# [9] = biological target: Glc(b1-3)Glc(b1-3)Glc(b1-3)Glc(b1-3)Glc(b1-3)Glc(b1-3)Glc(b1-3)Glc(b1-3)Glc(b1-3)Glc(b1-3)Glc(b1-3)Glc
# How it was run: as §1
# [10] = biological target: Glc(b1-3)Glc(b1-3)Glc(b1-3)Glc(b1-3)Glc(b1-3)Glc(b1-3)Glc(b1-3)Glc(b1-3)Glc(b1-3)Glc(b1-3)Glc(b1-3)Glc(b1-3)Glc
# How it was run: as §1
# [11] = biological target: Glc(b1-3)Glc(b1-3)Glc(b1-3)Glc(b1-3)Glc(b1-3)Glc(b1-3)Glc(b1-3)[Glc(b1-6)]Glc(b1-3)Glc
# How it was run: as §1
# [12] = biological target: Glc(b1-3)Glc(b1-3)Glc(b1-3)Glc(b1-3)Glc(b1-3)Glc(b1-3)[Glc(b1-6)]Glc(b1-3)Glc(b1-3)Glc
# How it was run: as §1
# [13] = biological target: Glc(b1-3)Glc(b1-3)Glc(b1-3)Glc(b1-3)[Glc(b1-6)]Glc(b1-3)Glc(b1-3)Glc(b1-3)Glc(b1-3)Glc
# How it was run: as §1
# [14] = biological target: Glc(b1-3)Glc(b1-3)Glc(b1-3)[Glc(b1-6)]Glc(b1-3)Glc(b1-3)Glc(b1-3)Glc(b1-3)[Glc(b1-6)]Glc(b1-3)Glc
# How it was run: as §1
# [15] = biological target: Glc(b1-3)Glc(b1-3)[Glc(b1-6)]Glc(b1-3)Glc(b1-3)Glc(b1-3)Glc(b1-3)Glc(b1-3)Glc(b1-3)Glc
# How it was run: as §1
# Glc(b1-3)Glc(b1-4)Glc = biological target: Glc(b1-3)Glc(b1-4)Glc
# How it was run: as §1
# [16] = biological target: Glc(b1-3)Glc(b1-4)Glc(b1-4)Glc
# How it was run: as §1
# [17] = biological target: Glc(b1-3)Glc(b1-4)Glc(b1-6)Glc(b1-4)Glc
# How it was run: as §1
# [18] = biological target: Glc(b1-3)[Glc(b1-6)]Glc(a1-3)Glc(b1-3)[Glc(b1-6)]Glc
# How it was run: as §1
# [19] = biological target: Glc(b1-3)[Glc(b1-6)]Glc(b1-3)Glc(b1-3)Glc(b1-3)Glc(b1-3)Glc(b1-3)Glc(b1-3)Glc
# How it was run: as §1
# Glc(b1-4)Glc = biological target: Glc(b1-4)Glc
# How it was run: as §1
# Glc(b1-4)Glc(b1-3)Glc = biological target: Glc(b1-4)Glc(b1-3)Glc
# How it was run: as §1
# [20] = biological target: Glc(b1-4)Glc(b1-3)Glc(b1-4)Glc
# How it was run: as §1
# Glc(b1-4)Glc(b1-4)Glc = biological target: Glc(b1-4)Glc(b1-4)Glc
# How it was run: as §1
# [21] = biological target: Glc(b1-4)Glc(b1-4)Glc(b1-3)Glc
# How it was run: as §1
# [22] = biological target: Glc(b1-4)Glc(b1-4)Glc(b1-3)Glc(b1-4)Glc(b1-4)Glc(b1-3)Glc
# How it was run: as §1
# [23] = biological target: Glc(b1-4)Glc(b1-4)Glc(b1-4)Glc
# How it was run: as §1
# [24] = biological target: Glc(b1-4)Glc(b1-4)Glc(b1-4)Glc(b1-3)Glc
# How it was run: as §1
# [25] = biological target: Glc(b1-4)Glc(b1-4)Glc(b1-4)Glc(b1-4)Glc
# How it was run: as §1
# [26] = biological target: Glc(b1-4)Glc(b1-4)Glc(b1-4)Glc(b1-4)Glc(b1-4)Glc
# How it was run: as §1
# [27] = biological target: Glc(b1-4)Glc(b1-4)Glc(b1-4)Glc(b1-4)Glc(b1-4)Glc(b1-4)Glc
# How it was run: as §1
# [28] = biological target: Glc(b1-4)Glc(b1-4)Glc(b1-4)Glc(b1-4)Glc(b1-4)Glc(b1-4)Glc(b1-4)Glc
# How it was run: as §1
# [29] = biological target: Glc(b1-4)Glc(b1-4)Glc(b1-4)Glc(b1-4)Glc(b1-4)Glc(b1-4)Glc(b1-4)Glc(b1-4)Glc
# How it was run: as §1
# [30] = biological target: Glc(b1-4)Glc(b1-4)Glc(b1-4)Glc(b1-4)Glc(b1-4)Glc(b1-4)Glc(b1-4)Glc(b1-4)Glc(b1-4)Glc
# How it was run: as §1
# [31] = biological target: Glc(b1-4)Glc(b1-4)Glc(b1-4)Glc(b1-4)Glc(b1-4)Glc(b1-4)Glc(b1-4)Glc(b1-4)Glc(b1-4)Glc(b1-4)Glc
# How it was run: as §1
# [32] = biological target: Glc(b1-4)Glc(b1-4)Glc(b1-4)Glc(b1-4)Glc(b1-4)Glc(b1-4)Glc(b1-4)Glc(b1-4)Glc(b1-4)Glc(b1-4)Glc(b1-4)Glc
# How it was run: as §1
# [33] = biological target: Glc(b1-4)Glc(b1-4)Glc(b1-4)Glc(b1-4)Glc(b1-4)Glc(b1-4)Glc(b1-4)Glc(b1-4)Glc(b1-4)Glc(b1-4)Glc(b1-4)Glc(b1-4)Glc
# How it was run: as §1
# Glc(b1-6)Glc = biological target: Glc(b1-6)Glc
# How it was run: as §1
# Glc(b1-6)Glc(b1-6)Glc = biological target: Glc(b1-6)Glc(b1-6)Glc
# How it was run: as §1
# [34] = biological target: Glc(b1-6)Glc(b1-6)Glc(b1-6)Glc
# How it was run: as §1
# [35] = biological target: Glc(b1-6)Glc(b1-6)Glc(b1-6)Glc(b1-6)Glc
# How it was run: as §1
# [36] = biological target: Glc(b1-6)Glc(b1-6)Glc(b1-6)Glc(b1-6)Glc(b1-6)Glc
# How it was run: as §1
# [37] = biological target: Glc(b1-6)Glc(b1-6)Glc(b1-6)Glc(b1-6)Glc(b1-6)Glc(b1-6)Glc
# How it was run: as §1
# [38] = biological target: Glc(b1-6)Glc(b1-6)Glc(b1-6)Glc(b1-6)Glc(b1-6)Glc(b1-6)Glc(b1-6)Glc
# How it was run: as §1
# [39] = biological target: Glc(b1-6)Glc(b1-6)Glc(b1-6)Glc(b1-6)Glc(b1-6)Glc(b1-6)Glc(b1-6)Glc(b1-6)Glc
# How it was run: as §1
# [40] = biological target: Glc(b1-6)Glc(b1-6)Glc(b1-6)Glc(b1-6)Glc(b1-6)Glc(b1-6)Glc(b1-6)Glc(b1-6)Glc(b1-6)Glc
# How it was run: as §1
# [41] = biological target: Glc(b1-6)Glc(b1-6)Glc(b1-6)Glc(b1-6)Glc(b1-6)Glc(b1-6)Glc(b1-6)Glc(b1-6)Glc(b1-6)Glc(b1-6)Glc
# How it was run: as §1
# [42] = biological target: Glc(b1-6)Glc(b1-6)Glc(b1-6)Glc(b1-6)Glc(b1-6)Glc(b1-6)Glc(b1-6)Glc(b1-6)Glc(b1-6)Glc(b1-6)Glc(b1-6)Glc
# How it was run: as §1
# [43] = biological target: Glc(b1-6)Glc(b1-6)Glc(b1-6)Glc(b1-6)Glc(b1-6)Glc(b1-6)Glc(b1-6)Glc(b1-6)Glc(b1-6)Glc(b1-6)Glc(b1-6)Glc(b1-6)Glc
# How it was run: as §1
# [44] = biological target: Man(b1-4)Man(b1-4)Man(b1-4)Man
# How it was run: as §1
# [45] = biological target: Man(b1-4)Man(b1-4)Man(b1-4)Man(b1-4)Man
# How it was run: as §1
# [46] = biological target: Man(b1-4)Man(b1-4)Man(b1-4)Man(b1-4)Man(b1-4)Man
# How it was run: as §1
# [47] = biological target: Xyl(b1-4)Xyl(b1-4)Xyl(b1-4)Xyl(b1-4)Xyl
# How it was run: as §1
# [48] = biological target: Xyl(b1-4)Xyl(b1-4)Xyl(b1-4)Xyl(b1-4)Xyl(b1-4)Xyl
# How it was run: as §1
binder,measurement,setting,value
B1,glycan array binding signal (z-score),Glc(b1-3)Glc,-0.106
same,glycan array binding signal (z-score),Glc(b1-3)Glc(b1-3)Glc,-0.143
same,glycan array binding signal (z-score),[1],-0.143
same,glycan array binding signal (z-score),[2],-0.143
same,glycan array binding signal (z-score),[3],-0.143
same,glycan array binding signal (z-score),[4],-0.143
same,glycan array binding signal (z-score),[5],-0.143
same,glycan array binding signal (z-score),[6],0.004
same,glycan array binding signal (z-score),[7],-0.143
same,glycan array binding signal (z-score),[8],-0.143
same,glycan array binding signal (z-score),[9],-0.143
same,glycan array binding signal (z-score),[10],-0.143
same,glycan array binding signal (z-score),[11],0.035
same,glycan array binding signal (z-score),[12],0.047
same,glycan array binding signal (z-score),[13],-0.143
same,glycan array binding signal (z-score),[14],-0.114
same,glycan array binding signal (z-score),[15],-0.024
same,glycan array binding signal (z-score),Glc(b1-3)Glc(b1-4)Glc,-0.059
same,glycan array binding signal (z-score),[16],-0.136
same,glycan array binding signal (z-score),[17],-0.102
same,glycan array binding signal (z-score),[18],-0.143
same,glycan array binding signal (z-score),[19],0.014
same,glycan array binding signal (z-score),Glc(b1-4)Glc,-0.113
same,glycan array binding signal (z-score),Glc(b1-4)Glc(b1-3)Glc,-0.143
same,glycan array binding signal (z-score),[20],-0.143
same,glycan array binding signal (z-score),Glc(b1-4)Glc(b1-4)Glc,-0.117
same,glycan array binding signal (z-score),[21],-0.143
same,glycan array binding signal (z-score),[22],4.62
same,glycan array binding signal (z-score),[23],-0.143
same,glycan array binding signal (z-score),[24],-0.143
same,glycan array binding signal (z-score),[25],-0.139
same,glycan array binding signal (z-score),[26],-0.143
same,glycan array binding signal (z-score),[27],-0.103
same,glycan array binding signal (z-score),[28],-0.143
same,glycan array binding signal (z-score),[29],-0.137
same,glycan array binding signal (z-score),[30],-0.143
same,glycan array binding signal (z-score),[31],-0.124
same,glycan array binding signal (z-score),[32],-0.094
same,glycan array binding signal (z-score),[33],-0.097
same,glycan array binding signal (z-score),Glc(b1-6)Glc,-0.143
same,glycan array binding signal (z-score),Glc(b1-6)Glc(b1-6)Glc,-0.143
same,glycan array binding signal (z-score),[34],-0.143
same,glycan array binding signal (z-score),[35],-0.143
same,glycan array binding signal (z-score),[36],-0.139
same,glycan array binding signal (z-score),[37],-0.143
same,glycan array binding signal (z-score),[38],-0.143
same,glycan array binding signal (z-score),[39],-0.143
same,glycan array binding signal (z-score),[40],-0.107
same,glycan array binding signal (z-score),[41],-0.143
same,glycan array binding signal (z-score),[42],-0.113
same,glycan array binding signal (z-score),[43],-0.143
same,glycan array binding signal (z-score),[44],-0.097
same,glycan array binding signal (z-score),[45],0.04
same,glycan array binding signal (z-score),[46],-0.142
same,glycan array binding signal (z-score),[47],-0.143
same,glycan array binding signal (z-score),[48],-0.143

# Source: the supplement of paper PMC8728848
